# Laboratory results published in the RNAGym collection of RNA variant scans (doi:10.1093/nar/gkz1192).
# The source gives no read counts; variants with many changes may rest on few reads.
# B1: CPEB3 Ribozyme (parent)
# chain: UAACAGGGGGCCACAGCAGAAGCGUUCACGUCGCAGCCCCUGUCAGAUUCUGGUGAAUCUGCGAAUUCUGCUGUAUAUCUC
# Variants of: B1
# Assay: self-cleavage, relative activity (ratio to wild type); higher = more cleavage; in vitro, sequencing
# Outline: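 CPEB3 self-cleaving ribozyme mutant libraries were made by rounds of error-prone PCR, barcoded, and transcribed in vitro with T7 RNA polymerase for 5 hours at 37°C. Cleavage occurred during transcription and a 15 min DNase I step before EDTA stop. RNAs were reverse transcribed with template switching and Illumina-sequenced, with DNA sequencing mapping barcodes to variants. Relative activity is the variant's cleaved/total read fraction divided by wild type's (minimum 5 reads), averaged across three batches.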
row,Variant,self-cleavage
1,UAACAGGGGGCCACAGCAGAAGCGUUCACGCCGCGGCCCCUGUCAGAUUCUGGUAAGUCUGCGAAUUCUGCUGUAUGUCUC [U31C A35G G55A A57G A77G],0.72
2,UAACAGGGGGCCACAGCAGAAGCGUUCACGCCGCGGCCCCUGUCAGAUUCCGGUGAAUCUGCGAAUUCUGCUGUAUACCUC [U31C A35G U51C U78C],1.22
3,UAACAGGGGGCCACAGCAGAAGCGUUCACGCCGCUGCCCCUGUCAGAUUCUGGUGAAUCUUCGAAUUCUGCCGUAUAUCUC [U31C A35U G61U U72C],0.09
4,UAACAGGGGGCCACAGCAGAAGCGUUCACGCCGCGGCCCCUGUCAGAUUCUGGUGAAACUGCGAAUUCUGCUGUAUAUCUC [U31C A35G U58A],0.53
5,UAACAGGGGGCCACAGCAGAAGCGUUCACGCCGCAGCCCCUGUCGGAUCCCGGUGAAUCUGCGUAUCCUGCUGUAUAUCUC [U31C A45G U49C U51C A64U U67C],0.05
6,UAACAGGGGGCCACAGCAGAAGCGUUCACGCCGCGGCCCCUGCCAGAUUCUGGUGAUUCUGCGAAUUCUGCUGUAUAUCUC [U31C A35G U43C A57U],0.2
7,UAACAGGGGGCCACAGCAGAAGCGUUCACGACGCAGCCCCUGUCAGAUUCUGGUGAAUCUGCGAAUCCUGCUGUAUACCUC [U31A U67C U78C],0.11
8,UAACAGGGGGCCACAGCAGAAGCGUUCACGCCGCUGCCCCUGUCAGAUUCUGGAGAAUCUACGAAUUCUGCUGUAUAUCUC [U31C A35U U54A G61A],0.15
9,UAACAGGGGGCCACAGCAGAAGCGUUCACGCCGCUGCCCCUGACAGAUUCUGGUGAACCUGCGAAUUCUGCUGUAUAUCUC [U31C A35U U43A U58C],0.14
10,UAACAGGGGGCCACAGCAGAAGCGUUCACGCCGCUGCCCCUGUCAGAUUCUGGUGAAUCUGCGAAUUCUGCCGUAUAUCUC [U31C A35U U72C],0.14
11,UAACAGGGGGCCACAGCAGAAGCGUUCACGACGCAGCCCCUGUCAGAUUCUGGUGAAUCUGCGAAUUCCGCCGUAUAUCUC [U31A U69C U72C],0.14
12,UAACAGGGGGCCACAGCAGAAGCGUUCACGCCGCAGCCCCUGUCUGAUUCUGGUGAGUCUGCGAAUUCUGCUGUAUAUCUC [U31C A45U A57G],0.38
13,UAACAGGGGGCCACAGCAGAAGCGUUCACGCCGCGGCCCCUGUCAGAUUCUGGUGAAUCUGUGAAUUCUGCUGUAUACCUC [U31C A35G C62U U78C],0.14
14,UAACAGGGGGCCACAGCAGAAGCGUUCACGACGCAGCCCCUGUCAGAUUCUGGUGAAUCUGCGAACCCUGCUGUAUAUCCC [U31A U66C U67C U80C],0.15
15,UAACAGGGGGCCACAGCAGAAGCGUUCACGCCGCGGCCCCUGUCGGAUUCUGGAGAAUCUGCGAAUUCUGCUGUAUACCUC [U31C A35G A45G U54A U78C],0.69
16,UAACAGGGGGCCACAGCAGAAGCGUUCACGCCGCGGCCCCUGUCAGAUUCUGGUGAAUCUGCGAAUCCUGCUGUAUAUCUC [U31C A35G U67C],0.25
17,UAACAGGGGGCCACAGCAGAAGCGUUCACGACGCAGCCCCUGUCAGAUUCUGGUGAAUCUGCGAAUUCCGCUGUAUAUCAC [U31A U69C U80A],0.4

row,Variant,self-cleavage
1,UAACAGGGGGCCACAGCAGAAGCGUUCACGCCGCUGCCCCUGUCUGAUUCUGAGGAAUCUGCGAAUUCUGCUGUAUAUCCC [U31C A35U A45U G53A U54G U80C],0.12
2,UAACAGGGGGCCACAGCAGAAGCGUUCACGCCGCGGCCCCUGACAGAUUCUGGUGAAUCCGCGAAUUCUGCAGUAUAUCUC [U31C A35G U43A U60C U72A],0.6
3,UAACAGGGGGCCACAGCAGAAGCGUUCACGCCGCGGCCCCAGUCGGACUCUGGGGAAUCUGCGAAUUCUGCUGUAUAUCUC [U31C A35G U41A A45G U48C U54G],0.26
4,UAACAGGGGGCCACAGCAGAAGCGUUCACGCCGCGGCCCCUGUCAGAUUCUGGUGAAUCCGCGAACUGUGCCGUAUAUCUC [U31C A35G U60C U66C C68G U72C],0.21
5,UAACAGGGGGCCACAGCAGAAGCGUUCACGCCGCAGCCCCUGUCCGAUUCUGGUGAAGCUGCGAAUUCUGCUGUAUAUCUC [U31C A45C U58G],0.1
6,UAACAGGGGGCCACAGCAGAAGCGUUCACGCCGCAGCCCCUGUCGGAUUCCGGUGAAUCUGCGAAUUCUGCUGUAUAUCUC [U31C A45G U51C],0.49
7,UAACAGGGGGCCACAGCAGAAGCGUUCACGACGCAGCCCCUGUCAGAUUCUGGUGAAUCUGCGAAUUCAGCUGUACAUCCC [U31A U69A U76C U80C],0.34
8,UAACAGGGGGCCACAGCAGAAGCGUUCACGCCGCCGCCCCUGUCAGAUUCUGGUGAAUCUGUGAAUUCUGCUGUAUAUCUC [U31C A35C C62U],0.41
9,UAACAGGGGGCCACAGCAGAAGCGUUCACGCCGCAGCCCCUGUCCGAUUCUGGUGAAUCUGCGAAUUCUGCCGUAUAUCUC [U31C A45C U72C],0.15
10,UAACAGGGGGCCACAGCAGAAGCGUUCACGCCGCGGCCCCUGUCAGCUUCUGGUGAAUCUGCGAAUUCUGCCGUAUAUCUC [U31C A35G A47C U72C],0.38
11,UAACAGGGGGCCACAGCAGAAGCGUUCACGACGCAGCCCCUGUCAGAUUCUGGUGAAUCCGCGAAUUCUGCUGUACAUCUC [U31A U60C U76C],0.22
12,UAACAGGGGGCCACAGCAGAAGCGUUCACGCCGCAGCCCCUGUCGGAUUCUGGUGGAUCUGCGAAUUCUGCAGUAUAUCUC [U31C A45G A56G U72A],0.26
13,UAACAGGGGGCCACAGCAGAAGCGUUCACGACGCAGCCCCUGUCAGAUUCUGGUGAAUCUGCGAAUACUGCUGUAUAUCCC [U31A U67A U80C],0.55
14,UAACAGGGGGCCACAGCAGAAGCGUUCACGCCGCUGCGCCUGUCAGAUUCUGGUGAAUCUGCGAAUUCUGCUGUGUAUCUC [U31C A35U C38G A75G],0.03
15,UAACAGGGGGCCACAGCAGAAGCGUUCACGACGCAGCCCCUGUCAGAUUCUGGUGAAUCUGCGAAACCUGCUGUAUAUCUC [U31A U66A U67C],0.28
16,UAACAGGGGGCCACAGCAGAAGCGUUCACGCCGCGGCCCCUGUCAGAUUCUGGUGAAUCCGCGAACUGUGCUGUAUAUCUC [U31C A35G U60C U66C C68G],0.16
17,UAACAGGGGGCCACAGCAGAAGCGUUCACGCCGCGGCCCCUAUCAGAUUCUGGUGGAUCCGCGAAUUCUGCUGUAUAUCUC [U31C A35G G42A A56G U60C],0.15
